Holding throughout (experiment): two-hybrid; mouse proteins as bait and prey co-transformed into Y2HGold yeast; growth on -Leu -Trp -Ade -His plates for 2-7 days
The target of experiment [1] is T1, MEI1, yeast two-hybrid fusion (mouse) (UniProt Q9D4I2).
T1 sequence: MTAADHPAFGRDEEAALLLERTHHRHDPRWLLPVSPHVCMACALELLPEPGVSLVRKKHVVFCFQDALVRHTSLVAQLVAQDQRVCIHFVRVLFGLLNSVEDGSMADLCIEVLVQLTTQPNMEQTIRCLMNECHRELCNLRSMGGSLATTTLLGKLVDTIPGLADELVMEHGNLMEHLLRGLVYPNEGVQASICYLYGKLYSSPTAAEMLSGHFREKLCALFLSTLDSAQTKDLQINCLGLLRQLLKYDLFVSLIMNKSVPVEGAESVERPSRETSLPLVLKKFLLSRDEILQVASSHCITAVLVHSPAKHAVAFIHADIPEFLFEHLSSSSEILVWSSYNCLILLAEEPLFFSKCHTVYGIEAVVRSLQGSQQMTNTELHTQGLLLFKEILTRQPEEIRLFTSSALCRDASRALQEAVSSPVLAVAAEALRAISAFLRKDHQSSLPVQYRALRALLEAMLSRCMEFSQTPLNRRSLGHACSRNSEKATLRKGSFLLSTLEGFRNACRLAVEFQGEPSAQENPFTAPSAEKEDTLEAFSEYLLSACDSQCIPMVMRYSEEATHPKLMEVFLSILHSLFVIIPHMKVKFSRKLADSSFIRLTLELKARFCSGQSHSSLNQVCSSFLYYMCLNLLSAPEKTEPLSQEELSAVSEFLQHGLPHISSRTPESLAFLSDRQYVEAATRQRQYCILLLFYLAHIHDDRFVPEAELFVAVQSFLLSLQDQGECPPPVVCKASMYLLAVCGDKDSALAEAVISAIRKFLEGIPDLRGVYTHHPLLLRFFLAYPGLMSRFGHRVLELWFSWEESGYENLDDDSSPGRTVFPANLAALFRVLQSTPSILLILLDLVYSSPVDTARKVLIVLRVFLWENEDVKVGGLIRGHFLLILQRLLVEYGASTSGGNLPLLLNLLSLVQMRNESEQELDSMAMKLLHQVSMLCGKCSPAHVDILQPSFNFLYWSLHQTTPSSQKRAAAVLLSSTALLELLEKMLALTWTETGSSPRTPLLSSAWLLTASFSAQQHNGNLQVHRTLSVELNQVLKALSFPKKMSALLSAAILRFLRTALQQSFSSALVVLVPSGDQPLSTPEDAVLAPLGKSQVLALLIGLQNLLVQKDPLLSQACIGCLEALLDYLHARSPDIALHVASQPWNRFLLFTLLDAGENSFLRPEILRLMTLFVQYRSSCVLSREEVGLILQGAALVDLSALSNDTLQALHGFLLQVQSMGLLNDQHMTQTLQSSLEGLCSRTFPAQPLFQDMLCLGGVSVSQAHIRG

The target of experiment [2] is T2, HORMAD1, yeast two-hybrid fusion (mouse) (UniProt Q9D5T7).
T2 sequence: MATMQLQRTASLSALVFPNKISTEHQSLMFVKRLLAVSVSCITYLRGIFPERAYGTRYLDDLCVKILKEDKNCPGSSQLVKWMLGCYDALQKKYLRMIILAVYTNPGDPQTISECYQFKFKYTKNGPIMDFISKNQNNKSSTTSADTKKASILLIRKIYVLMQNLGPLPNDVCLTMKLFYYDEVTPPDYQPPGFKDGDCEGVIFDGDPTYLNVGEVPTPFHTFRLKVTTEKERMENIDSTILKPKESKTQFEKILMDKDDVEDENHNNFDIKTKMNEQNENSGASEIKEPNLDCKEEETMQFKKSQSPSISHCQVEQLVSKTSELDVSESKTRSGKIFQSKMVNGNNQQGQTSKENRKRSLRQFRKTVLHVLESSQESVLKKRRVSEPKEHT

The target of experiment [3] is T3, IHO1, wild type (1-574), yeast two-hybrid fusion (mouse) (UniProt Q6PDM4).
T3 sequence: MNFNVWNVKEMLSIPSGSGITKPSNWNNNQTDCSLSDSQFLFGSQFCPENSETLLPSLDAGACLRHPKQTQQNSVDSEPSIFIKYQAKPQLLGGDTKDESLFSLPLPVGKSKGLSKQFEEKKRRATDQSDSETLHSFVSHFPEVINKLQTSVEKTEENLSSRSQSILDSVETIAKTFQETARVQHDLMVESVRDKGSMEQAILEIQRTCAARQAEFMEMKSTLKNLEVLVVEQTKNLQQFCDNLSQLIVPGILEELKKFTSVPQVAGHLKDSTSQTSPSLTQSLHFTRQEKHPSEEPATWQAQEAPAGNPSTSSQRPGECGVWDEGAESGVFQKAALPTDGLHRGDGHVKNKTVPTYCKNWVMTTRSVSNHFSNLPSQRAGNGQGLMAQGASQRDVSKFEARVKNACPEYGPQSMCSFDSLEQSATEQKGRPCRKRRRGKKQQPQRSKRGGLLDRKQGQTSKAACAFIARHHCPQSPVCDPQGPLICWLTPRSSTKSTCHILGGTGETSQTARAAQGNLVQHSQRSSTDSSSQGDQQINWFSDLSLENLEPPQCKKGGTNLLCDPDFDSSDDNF

In experiment [4] the target is ANKRD31, yeast two-hybrid fusion (mouse).
Experiment [5] deals with T4, DBF4, yeast two-hybrid fusion (mouse) (UniProt Q9QZ41).
T4 sequence: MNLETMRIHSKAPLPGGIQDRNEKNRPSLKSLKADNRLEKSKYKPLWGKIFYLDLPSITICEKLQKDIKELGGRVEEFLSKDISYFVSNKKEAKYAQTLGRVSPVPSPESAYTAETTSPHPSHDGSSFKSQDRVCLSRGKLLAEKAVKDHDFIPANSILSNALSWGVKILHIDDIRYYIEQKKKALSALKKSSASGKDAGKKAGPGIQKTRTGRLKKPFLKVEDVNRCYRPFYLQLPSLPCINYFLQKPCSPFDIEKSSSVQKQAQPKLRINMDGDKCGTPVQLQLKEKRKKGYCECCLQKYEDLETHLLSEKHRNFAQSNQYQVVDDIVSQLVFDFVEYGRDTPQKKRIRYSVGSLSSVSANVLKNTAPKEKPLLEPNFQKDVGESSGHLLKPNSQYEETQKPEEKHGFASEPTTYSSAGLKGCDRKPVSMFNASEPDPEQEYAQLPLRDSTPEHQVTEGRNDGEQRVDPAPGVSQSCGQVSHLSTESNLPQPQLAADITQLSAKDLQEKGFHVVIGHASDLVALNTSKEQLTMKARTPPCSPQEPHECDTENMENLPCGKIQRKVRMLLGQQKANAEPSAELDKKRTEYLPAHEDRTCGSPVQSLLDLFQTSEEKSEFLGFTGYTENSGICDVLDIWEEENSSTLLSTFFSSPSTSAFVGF

Experiment [6] concerns the target T5, REC114, yeast two-hybrid fusion (mouse) (UniProt Q9CWH4).
T5 sequence: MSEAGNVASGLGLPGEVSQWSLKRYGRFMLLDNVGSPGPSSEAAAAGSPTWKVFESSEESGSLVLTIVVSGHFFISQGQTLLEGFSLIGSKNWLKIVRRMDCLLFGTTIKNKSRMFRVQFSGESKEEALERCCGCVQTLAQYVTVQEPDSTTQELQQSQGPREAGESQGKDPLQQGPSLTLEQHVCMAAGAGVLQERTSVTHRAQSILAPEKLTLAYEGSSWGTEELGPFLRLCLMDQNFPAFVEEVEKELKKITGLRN

Results are given in words; binding and its absence hold for the method and conditions named. Some binding calls cover weakened binding; strength is not graded here. Tags and fused reporters may be left off the sequences shown.

B1: IHO1_C7Δ (IHO1 without its last 7 amino acids), yeast two-hybrid fusion (domain or fragment, UniProt Q6PDM4 1-567)
chain: MNFNVWNVKEMLSIPSGSGITKPSNWNNNQTDCSLSDSQFLFGSQFCPENSETLLPSLDAGACLRHPKQTQQNSVDSEPSIFIKYQAKPQLLGGDTKDESLFSLPLPVGKSKGLSKQFEEKKRRATDQSDSETLHSFVSHFPEVINKLQTSVEKTEENLSSRSQSILDSVETIAKTFQETARVQHDLMVESVRDKGSMEQAILEIQRTCAARQAEFMEMKSTLKNLEVLVVEQTKNLQQFCDNLSQLIVPGILEELKKFTSVPQVAGHLKDSTSQTSPSLTQSLHFTRQEKHPSEEPATWQAQEAPAGNPSTSSQRPGECGVWDEGAESGVFQKAALPTDGLHRGDGHVKNKTVPTYCKNWVMTTRSVSNHFSNLPSQRAGNGQGLMAQGASQRDVSKFEARVKNACPEYGPQSMCSFDSLEQSATEQKGRPCRKRRRGKKQQPQRSKRGGLLDRKQGQTSKAACAFIARHHCPQSPVCDPQGPLICWLTPRSSTKSTCHILGGTGETSQTARAAQGNLVQHSQRSSTDSSSQGDQQINWFSDLSLENLEPPQCKKGGTNLLCDPDF
As for B1, the binding entry in experiment [1] is listed as “binds”; in experiment [2], “no binding”; in experiment [3] it was “binds”; in experiment [4], “binds”; in experiment [5], “binds”; in experiment [6], “binds”.

(Values after publication PMC10997794, “Seeding the meiotic DNA break machinery and initiating recombination on chromosome axes” (Nature Communications, 2024).)
